# Results reported in the supplement of paper PMC8728848.
# The list shows a part of the results.
# Experiments:
# Test in all cases: glycan array binding signal (z-score within array); higher = stronger binding
# Conditions in all cases: glycan notation: IUPAC condensed, linker removed
# [1] = target: Neu5Ac(a2-8)Neu5Ac
# In short: (§1)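 Glycan array data were curated from 3228 arrays in the Consortium for Functional Glycomics database and kept only where the protein sequence was available. Glycan names were converted to IUPAC-condensed notation, and columns mapping to the same glycan were averaged. The binding signal is a within-array Z-score, averaged across arrays of the same protein sequence at different concentrations or buffers and across linkers. Negative Z-scores can be read as non-binding.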
# [2] = target: Neu5Ac(a2-8)Neu5Ac(a2-3)Gal(b1-3)GalNAc(b1-4)[Neu5Ac(a2-3)]Gal(b1-4)Glc
# In short: as §1
# [3] = target: Neu5Ac(a2-8)Neu5Ac(a2-3)Gal(b1-3)GalNAc(b1-4)[Neu5Ac(a2-8)Neu5Ac(a2-3)]Gal(b1-4)Glc
# In short: as §1
# [4] = target: Neu5Ac(a2-8)Neu5Ac(a2-3)Gal(b1-4)Glc
# In short: as §1
# [5] = target: Neu5Ac(a2-8)Neu5Ac(a2-3)Gal(b1-4)GlcNAc
# In short: as §1
# [6] = target: Neu5Ac(a2-8)Neu5Ac(a2-3)[Gal(b1-3)GalNAc(b1-4)]Gal(b1-4)Glc
# In short: as §1
# [7] = target: Neu5Ac(a2-8)Neu5Ac(a2-3)[GalNAc(b1-4)]Gal(b1-4)Glc
# In short: as §1
# [8] = target: Neu5Ac(a2-8)Neu5Ac(a2-8)Neu5Ac
# In short: as §1
# [9] = target: Neu5Ac(a2-8)Neu5Ac(a2-8)Neu5Ac(a2-3)Gal(b1-4)Glc
# In short: as §1
# [10] = target: Neu5Ac(a2-8)Neu5Ac(a2-8)Neu5Ac(a2-3)[Gal(b1-3)GalNAc(b1-4)]Gal(b1-4)Glc
# In short: as §1
# [11] = target: Neu5Ac(a2-8)Neu5Ac(a2-8)Neu5Ac(a2-3)[GalNAc(b1-4)]Gal(b1-4)Glc
# In short: as §1
# [12] = target: Neu5Ac(a2-8)Neu5Ac(a2-8)Neu5Ac(a2-8)Neu5Ac(a2-3)[GalNAc(b1-4)]Gal(b1-4)Glc
# In short: as §1
# [13] = target: Neu5Ac(a2-8)Neu5Gc(a2-3)Gal(b1-4)GlcNAc
# In short: as §1
# [14] = target: Neu5Ac(b2-6)Gal(b1-4)GlcNAc
# In short: as §1
# [15] = target: Neu5Ac(b2-6)GalNAc
# In short: as §1
# [16] = target: Neu5Ac9Ac(a2-3)Gal(b1-3)GlcNAc
# In short: as §1
# [17] = target: Neu5Ac9Ac(a2-3)Gal(b1-4)GlcNAc
# In short: as §1
# [18] = target: Neu5Ac9Ac(a2-6)Gal(b1-4)GlcNAc
# In short: as §1
# [19] = target: Neu5Gc(a2-3)Gal(b1-3)GlcNAc
# In short: as §1
# [20] = target: Neu5Gc(a2-3)Gal(b1-3)[Fuc(a1-4)]GlcNAc
# In short: as §1
# [21] = target: Neu5Gc(a2-3)Gal(b1-4)Glc
# In short: as §1
# [22] = target: Neu5Gc(a2-3)Gal(b1-4)GlcNAc
# In short: as §1
# [23] = target: Neu5Gc(a2-3)Gal(b1-4)GlcNAc(b1-3)Gal(b1-4)GlcNAc(b1-2)Man(a1-3)[Neu5Gc(a2-3)Gal(b1-4)GlcNAc(b1-3)Gal(b1-4)GlcNAc(b1-2)Man(a1-6)]Man(b1-4)GlcNAc(b1-4)GlcNAc
# In short: as §1
# [24] = target: Neu5Gc(a2-3)Gal(b1-4)[Fuc(a1-3)]GlcNAc
# In short: as §1
# [25] = target: Neu5Gc(a2-6)Gal(b1-4)GlcNAc
# In short: as §1
# [26] = target: Neu5Gc(a2-6)GalNAc
# In short: as §1
# [27] = target: Neu5Gc(a2-8)Neu5Ac(a2-3)Gal(b1-4)GlcNAc
# In short: as §1
# [28] = target: Neu5Gc(a2-8)Neu5Gc(a2-3)Gal(b1-4)GlcNAc
# In short: as §1
# [29] = target: Neu5Gc(a2-8)Neu5Gc(a2-3)Gal(b1-4)GlcNAc(b1-3)Gal(b1-4)GlcNAc
# In short: as §1
# [30] = target: Neu5Gc(a2-8)Neu5Gc(a2-6)Gal(b1-4)GlcNAc
# In short: as §1
# [31] = target: Neu5Gc(b2-6)Gal(b1-4)GlcNAc
# In short: as §1
binder,measurement,setting,value
LecB PA14 (Pseudomonas aeruginosa) (protein) MATQGVFTLPANTQFGVTAFANSAGTQTVNVQVNNETVATFTGQSTNNAIIGSKVLNSGGGGKVQILVSVNGRSSDLVSAQVILANELNFALVGSEDSTDNDYNDAVVVINWPLG,glycan array binding signal (z-score),[1],-0.161
same,glycan array binding signal (z-score),[2],-0.711
same,glycan array binding signal (z-score),[3],0.585
same,glycan array binding signal (z-score),[4],-0.441
same,glycan array binding signal (z-score),[5],-0.439
same,glycan array binding signal (z-score),[6],-0.295
same,glycan array binding signal (z-score),[7],-0.147
same,glycan array binding signal (z-score),[8],-0.259
same,glycan array binding signal (z-score),[9],-0.555
same,glycan array binding signal (z-score),[10],-0.695
same,glycan array binding signal (z-score),[11],-0.494
same,glycan array binding signal (z-score),[12],-0.549
same,glycan array binding signal (z-score),[13],-0.673
same,glycan array binding signal (z-score),[14],-0.066
same,glycan array binding signal (z-score),[15],0.388
same,glycan array binding signal (z-score),[16],-0.41
same,glycan array binding signal (z-score),[17],-0.339
same,glycan array binding signal (z-score),[18],-0.872
same,glycan array binding signal (z-score),[19],0.419
same,glycan array binding signal (z-score),[20],0.603
same,glycan array binding signal (z-score),[21],-0.693
same,glycan array binding signal (z-score),[22],-0.411
same,glycan array binding signal (z-score),[23],-0.365
same,glycan array binding signal (z-score),[24],-0.557
same,glycan array binding signal (z-score),[25],-0.306
same,glycan array binding signal (z-score),[26],-0.209
same,glycan array binding signal (z-score),[27],-0.125
same,glycan array binding signal (z-score),[28],0.236
same,glycan array binding signal (z-score),[29],-0.746
same,glycan array binding signal (z-score),[30],-0.439
same,glycan array binding signal (z-score),[31],-0.805
